According to the RNAGym collection of RNA variant scans (doi:10.1101/gad.245936.114):
Variants at the floor of the assay are shown more often than the library holds them.

B1: tRNA (parent)
chain: CUCUCGGUAGCCAAGUUGGUUUAAGGCGCAAGACUUUAAUUUAUCACUACGAAAUCUUGAGAUCGGGCGUUCGACUCGCCCCCGGGAGAUUUUUUCCUCGAGCAA

Variants of: B1
Assay: nonsense suppression (GFP-seq) (ratio to wild type); higher = more function; SUP4oc tRNA, yeast GFP reporter sort-seq
Method in brief: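 Yeast carrying genome-integrated SUP4oc tRNA variants from a library with ~3% random mutations were grown in raffinose/galactose medium with 80 mg/L adenine. Each strain also carried a galactose-driven GFP ochre reporter and RFP. Cells were sorted into GFP/RFP bins, and each bin was Illumina-sequenced (phred ≥30). Nonsense suppression (GFPSEQ) is the bin median GFP/RFP, weighted by each variant's estimated cell share per bin, relative to wild-type SUP4oc; variants needed ≥100 reads and ≥30 cells.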

Point of comparison: A54U U63A, nonsense suppression 0.864. Against it:
- C56G G61U — lower, ≤ 0.026
- C56G G61A — lower, ≤ 0.026
- C56G C82A — lower, ≤ 0.026
- U58C U63G G84A G86A — lower, ≤ 0.026
- U57A G69C C82G — lower, ≤ 0.026
- C56U G85U — lower, ≤ 0.026
- U55A C82A — lower, ≤ 0.026
- U58A G66C G69C C72G — lower, ≤ 0.026
- U55G C56A A74G A87U — lower, ≤ 0.026
- U55A G61A — lower, ≤ 0.026
- A54U U55C — lower, ≤ 0.026
- U55G C56A G67C U76A C79G — lower, ≤ 0.026
- U57C C64G — lower, ≤ 0.026
- C56A G59C A62G G78U — lower, ≤ 0.026
- U57G A60G C79A G84C — lower, ≤ 0.026
- C56A C79A — lower, ≤ 0.026
- C56G G66A — lower, ≤ 0.026
- U55C U63C C83G — lower, ≤ 0.026
- U57G C80G — lower, ≤ 0.026
- U57A C77G — lower, ≤ 0.026
- U57C U71A — lower, ≤ 0.026
- U57C U71C — lower, ≤ 0.026
- U55C U63A C72U — lower, ≤ 0.026
- C56U C64U C80G — lower, ≤ 0.026
- U57A U76G A89C — lower, ≤ 0.026
- A54U U71C G84A — lower, ≤ 0.026
- U55C U57C G86U — lower, ≤ 0.026
- U57G G86A — lower, ≤ 0.026
- U55G A60U — lower, ≤ 0.026
- U57C G69U — lower, ≤ 0.026
- U57G U71C G86U — lower, ≤ 0.026
- U57A G78A A89U — lower, ≤ 0.026
- U57A G66A G78C C82A — lower, ≤ 0.026
- U55C U58A — lower, ≤ 0.026
- C56U A87G — lower, ≤ 0.026
- U58C U76A — lower, ≤ 0.026
- U57A U63A C68G — lower, ≤ 0.026
- U55G A87G G88A — lower, ≤ 0.026
- A54U G67C U71G G73C G84C — lower, ≤ 0.026
- U58C G69A — lower, ≤ 0.026
- U57G G73U C81A — lower, ≤ 0.026
- C56U G67C U76G — lower, ≤ 0.026
- U58A G66A G73A — lower, ≤ 0.026
- A54U G67A — lower, 0.0673
- U58A U63C G67A U76C — lower, ≤ 0.026
- U55A A60C C75U G78C C79G — lower, ≤ 0.026
- A54U U58G — lower, ≤ 0.026
- U57C U58C C68G C81A — lower, ≤ 0.026
- U55C U57G — lower, ≤ 0.026
- U57A G66U G78A — lower, ≤ 0.026
- U55C U63G — lower, ≤ 0.026
- U55C U63A — lower, 0.244
- U55C G66C U71A G84C — lower, ≤ 0.026
- U57G G67C — lower, ≤ 0.026
- U55C G59C A60C C80A G84A A87C — lower, ≤ 0.026
- U57C C75U C79A — lower, ≤ 0.026
- U55G G73U — lower, ≤ 0.026
- U57G C79G — lower, ≤ 0.026
- U57G U63C C72A G85U — lower, ≤ 0.026
- U55G A87C — lower, ≤ 0.026
- U57C G65C C83G — lower, ≤ 0.026
- U58A G67C — lower, ≤ 0.026
- C56G A60U — lower, ≤ 0.026
- U58C G59C — lower, ≤ 0.026
- U57C C82G — lower, ≤ 0.026
- U57C U58C G59A G67U — lower, ≤ 0.026
- U55C G78A C82A — lower, ≤ 0.026
- U58C G61A — lower, 0.0586
- U58C G61C — lower, 0.0324
- C56U U57A G73A C77A G86C — lower, ≤ 0.026
- U55A U76A G86A — lower, ≤ 0.026
- C56A G59C A60U — lower, ≤ 0.026
- U57A U70C G85U — lower, ≤ 0.026
- U55G C77G G88C — lower, ≤ 0.026
- U57G G88C — lower, ≤ 0.026
- U57C G86C — lower, ≤ 0.026
- U55G A60U U63A — lower, ≤ 0.026
- C56G C79A G85C — lower, ≤ 0.026
- C56U C64G — lower, ≤ 0.026
- U57C G66C C80G A89C — lower, ≤ 0.026
- A54U G66A G69C — lower, ≤ 0.026
- C56U U71G G78A — lower, ≤ 0.026
- U58G A62U C80A A87U — lower, ≤ 0.026
- U55A C56U A87C — lower, ≤ 0.026
- U55C G59C G85C — lower, ≤ 0.026
- U57C A74G — lower, ≤ 0.026
- C56U G67A — lower, ≤ 0.026
- C56A G66A U76A — lower, ≤ 0.026
- U57C U63A G84C — lower, ≤ 0.026
- C56G A62C U71A C82G — lower, ≤ 0.026
- U57G U58G G65C — lower, ≤ 0.026
- U55A U57A — lower, ≤ 0.026
- U57A G66C — lower, ≤ 0.026
- U57A G66A — lower, ≤ 0.026
- A54U G69C C81G — lower, ≤ 0.026
- C56G U63C G66U — lower, ≤ 0.026
- U55C A62G A74U — lower, ≤ 0.026
- U55C U63A C75G — lower, 0.0265
- C56U G61C C80A — lower, ≤ 0.026
- U55C C64G U70G U76A G78U — lower, ≤ 0.026
- U58C G59A G69A C80A — lower, ≤ 0.026
- C56A G67U U71C C72A — lower, ≤ 0.026
- U55G U63A G86C — lower, ≤ 0.026
- U57C A60G C72A — lower, ≤ 0.026
- U57A G65A A87C — lower, ≤ 0.026
- U55A A87C — lower, ≤ 0.026
- U57G G65C — lower, ≤ 0.026
- C56A U57G U58C U63A G78U — lower, ≤ 0.026
- U57G G85U — lower, ≤ 0.026
- U57G G85C — lower, ≤ 0.026
- U55C C75G — higher, 1.16
- U55C C75U — higher, 0.903
- U55A G86A — lower, ≤ 0.026
- U57G G61C A62G G65U — lower, ≤ 0.026
- A54U U63G — lower, 0.659
- A54U U63C — lower, 0.798
- U57C C81U G84U — lower, ≤ 0.026
- U55A G73C U76A — lower, ≤ 0.026
- U55G A62C — lower, ≤ 0.026
- U55A C75G — lower, ≤ 0.026
- C56G C80A — lower, ≤ 0.026
- C56G C81G — lower, ≤ 0.026
- C56A U63G — lower, ≤ 0.026
- U57A G85U — lower, 0.0736
- U58A A74G — lower, ≤ 0.026
- U57A G59U G88C — lower, ≤ 0.026
- C56A G59U C81G G86C — lower, ≤ 0.026
- U57C U76C — lower, ≤ 0.026
- U58A A60U U70C — lower, ≤ 0.026
- U55A A74G A89C — lower, ≤ 0.026
- U57A G65A C79A — lower, ≤ 0.026
- C56A U76C — lower, ≤ 0.026
- U55A A60C C75U G78C C79G A89G — lower, ≤ 0.026
- U55A C79U A87U — lower, ≤ 0.026
- U55A A62C G88U — lower, ≤ 0.026
- U58A G61A — lower, 0.0532
- U58A G61C — lower, ≤ 0.026
- U58A G61U — lower, ≤ 0.026
- C56G U71C — lower, ≤ 0.026
- C56G U71G — lower, ≤ 0.026
- U57A G78C — lower, ≤ 0.026
- C56U A60C G78U — lower, ≤ 0.026
- U57C G59C — lower, ≤ 0.026
- C56A A89U — lower, ≤ 0.026
- C56A A89C — lower, ≤ 0.026
- U55G U57C A62C — lower, ≤ 0.026
- U57A G59C — lower, ≤ 0.026
- U55C C81G — lower, ≤ 0.026
- U57C G61A U70C — lower, ≤ 0.026
- C56U G69C C82G — lower, ≤ 0.026
- U58A G84A — lower, ≤ 0.026
- C56A C75A — lower, ≤ 0.026
- U57A G66A C82A — lower, ≤ 0.026
- U55C A62U — lower, ≤ 0.026
- U57C G66C — lower, ≤ 0.026
- A54U U57A — lower, ≤ 0.026
- U58A G59A — lower, ≤ 0.026
- U57G A62G — lower, ≤ 0.026
- U57G A62C — lower, ≤ 0.026
- U57G U70G C79G — lower, ≤ 0.026
- U55G U57C U63A — lower, ≤ 0.026
- U57A C68A — lower, ≤ 0.026
- C56A G61C — lower, ≤ 0.026
- U55G U57C — lower, ≤ 0.026
- C56U G66C A89U — lower, ≤ 0.026
- U57A G61C G86C — lower, ≤ 0.026
